# In patent US20190062399A1:
# Values joined by “and” are separate entries in the source; they are usually repeats but may differ in a detail not shown here. Equal entries are not always repeated.
# Target: B7 protein (CD80 and/or CD86) on Daudi B cells
# Experiment: cell-based or functional assay
binder,measurement,value
"CTLA4^A29YL104E-Ig (Fc fusion, here or on the partner: glycosylated: N-linked at Asn102, Asn134, Asn233 (numbering of SEQ ID NO:4); O-linked sites in the hinge) MHVAQPAVVLASSRGIASFVCEYASPGKYTEVRVTVLRQADSQVTEVCAATYMMGNELTFLDDSICTGTSSGNQVNLTIQGLRAMDTGLYICKVELMYPPPYYEGIGNGTQIYVIDPEPCPDSDQ[not shown - human IgG1 Fc with changes]","EC50, human IL-2 promoter mediated luciferase activity in the in vitro potency bioassay (Jurkat T cells + Daudi B cells + anti-CD3)",0.0191 µg/mL and 0.0215 µg/mL and 0.0218 µg/mL
